According to PubChem BioAssay AID1745853 (National Center for Advancing Translational Sciences (NCATS), 2022):
The other results are listed elsewhere or left out. These are further read-outs of the screen, such as a control signal, another cell line or another target. No call is given for them.

Columns and labels:
Experiment in all cases: Primary Screen for Target Class Profiling of Small Molecule Inhibitors of Methyltransferases
[1] = molecular target: Glycine N-methyltransferase (Homo sapiens) (UniProt Q14749); conditions: purified enzyme, MTase-Glo SAH luminescence; measured here: GNMT inhibition; at 40 µM; stronger effect = lower value
Summary of the method: (§1)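 Each enzyme was assayed with SAM and its substrate. SAH formation detected by MTase-Glo luminescence; single-point 40 uM screen[…].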

[2] = molecular target: Guanidinoacetate N-methyltransferase (Homo sapiens) (UniProt Q14353); conditions: purified enzyme, MTase-Glo SAH luminescence; measured here: GAMT inhibition; at 40 µM; stronger effect = lower value
Summary of the method: as §1

[3] = molecular target: Histamine N-methyltransferase (Homo sapiens) (UniProt P50135); conditions: purified enzyme, MTase-Glo SAH luminescence; measured here: HNMT inhibition; at 40 µM; stronger effect = lower value
Summary of the method: as §1

[4] = molecular target: Nicotinamide N-methyltransferase (Homo sapiens) (UniProt P40261); conditions: purified enzyme, MTase-Glo SAH luminescence; measured here: NNMT inhibition; at 40 µM; stronger effect = lower value
Summary of the method: as §1

[5] = molecular target: Phenylethanolamine N-methyltransferase (Homo sapiens) (UniProt P11086); conditions: purified enzyme, MTase-Glo SAH luminescence; measured here: PNMT inhibition; at 40 µM; stronger effect = lower value
Summary of the method: as §1
% is set by controls: 0 for no effect and ±100 for the full control effect.

Structure (SMILES)	activity change, negative = inhibition [1]	activity change, negative = inhibition [2]	activity change, negative = inhibition [3]	activity change, negative = inhibition [4]	activity change, negative = inhibition [5]
CC1=CC2(O)/C=C/C(C)(O)C(O)C(O)/C=C/C(=O)OC23C(=O)NC(CC(C)C)C3C1C (stereo not given)	3.09%	4.07%	10.3%	-8.34%	-0.89%
Cc1cccc(NC(=O)N2Cc3ccccc3-n3cccc3C2c2ccc(F)cc2)c1 (stereo not given)	-0.287%	0.55%	5.5%	5.66%	8.9%
CCC1c2cccn2-c2ccccc2CN1C(=O)NCCC(C)C (stereo not given)	-2.12%	0.912%	3.07%	-4.66%	1.56%
CCOc1ccc(NC(=O)N2Cc3ccccc3-n3cccc3C2CC)cc1 (stereo not given)	-0.18%	0%	4.12%	0.121%	4.93%
C/C=C(\C)C(=O)OC1CC2C(C)(C)OC(=O)CC(OC(C)=O)C2(C)C2CC(OC(=O)C(C)C)C3(C)C(c4ccoc4)CC4OC43C12C (stereo not given)	0%	-2.3%	2.63%	-16.8%	1.83%
Cc1nc(-c2ccco2)cc([C@H]2CN3CC[C@H]2C[C@@H]3CNS(C)(=O)=O)n1	-2.46%	-0.524%	-8.02%	-6.4%	-5.96%
Cc1sc2c(c1C)C(c1ccc(Cl)cc1)=N[C@@H](CC(N)=O)c1nnc(C)n1-2	0.396%	-1.11%	1.67%	-27.4%	-4.98%
Cc1ccccc1NC(=O)N1Cc2ccccc2-n2cccc2C1c1ccc(F)cc1 (stereo not given)	-0.333%	0.347%	1.39%	3.45%	7.06%
C/C=C(\C)C(=O)O[C@@H]1[C@@H](C)[C@]2(O)C3C=C(C)C(=O)[C@@]3(O)CC(CO)=C[C@H]2C2C(C)(C)[C@@]21OC(=O)C(C)CC (stereo not given in full)	2.89%	3.3%	10.2%	-11.8%	-5.34%
COc1ccc(C2c3cccn3-c3ccccc3CN2C(=O)Nc2ccc(OC)c(OC)c2)cc1 (stereo not given)	11.2%	3.84%	8.33%	4.17%	8.34%
O=C(Nc1ccc(F)cc1)N1Cc2ccccc2-n2cccc2C1c1cc(F)cc(F)c1 (stereo not given)	8.46%	2.89%	1.07%	3.17%	1.85%
COC(=O)c1ccc(NC(=O)N2Cc3ccccc3-n3cccc3C2c2ccc(OC)c(OC)c2)cc1 (stereo not given)	4.91%	0%	-1.79%	-3.78%	1.38%
CCOc1ccc(C2c3cccn3-c3ccccc3CN2C(=O)NCCc2ccccc2)cc1 (stereo not given)	-1.5%	0%	-2.21%	2.83%	4.07%
CSc1ccc(C2c3cccn3-c3ccccc3CN2C(=O)Nc2cc(Cl)ccc2C)cc1 (stereo not given)	2.27%	1.73%	6.15%	0.942%	5.61%
CC1c2cccn2-c2ccccc2CN1C(=O)Nc1ccc(F)c(Cl)c1 (stereo not given)	7.26%	0%	3.79%	-0.621%	2.98%
CCOC(=O)C1CCC(CNC(=O)N2Cc3ccccc3-n3cccc3C2c2cccs2)CC1 (stereo not given)	3.01%	4.4%	-6.09%	-13.1%	-4.94%
COc1ccc(NC(=O)N2Cc3ccccc3-n3cccc3C2c2ccccc2Cl)cc1 (stereo not given)	9.01%	1.21%	3.05%	0.748%	3.09%
C=C(C)[C@@H]1[C@H]2OC(=O)[C@H]1[C@]1(O)C[C@H]3O[C@]34C(=O)O[C@H]2[C@]14C	2.96%	8.82%	5.57%	-6.6%	2.92%
CCOCCCNC(=O)N1Cc2ccccc2-n2cccc2C1c1ccc(OC)cc1 (stereo not given)	3.98%	4.48%	-3.32%	-3.54%	-0.299%

Structure (SMILES)	activity change, negative = inhibition [1]	activity change, negative = inhibition [2]	activity change, negative = inhibition [3]	activity change, negative = inhibition [4]	activity change, negative = inhibition [5]
CC[C@@H](C)[C@H]1C(=O)O[C@H](C(C)C)C(=O)N(C)[C@@H](C(C)C)C(=O)O[C@H](C(C)C)C(=O)N(C)[C@@H](C(C)C)C(=O)O[C@H](C(C)C)C(=O)N1C	-1.08%	-2.29%	1.15%	-11.2%	-0.142%
COCC1OC(=O)c2coc3c2C1(C)C1=C(C3=O)C2CCC(=O)C2(C)CC1O (stereo not given)	0%	6.54%	6.96%	-5.4%	6.1%
Cc1ccc(NC(=O)N2Cc3ccccc3-n3cccc3C2C)cc1F (stereo not given)	12.3%	4.09%	7.41%	2.67%	10.6%
Cc1ccc(C)c(NC(=O)N2Cc3ccccc3-n3cccc3C2c2ccc(N(C)C)cc2)c1 (stereo not given)	4.55%	0%	0.392%	1.56%	0.593%
COc1ccc(OC)c(NC(=O)N2Cc3ccccc3-n3cccc3C2c2ccccc2C)c1 (stereo not given)	10.5%	0%	6.95%	6.28%	6.97%
Nc1cc2c(ncn2CCOCP(=O)(O)O)c(=O)[nH]1	-0.124%	10.6%	1.1%	1.61%	10.4%
CO[C@@H]1[C@H](O)[C@@H](O[C@@H]2C[C@H]3CC[C@@H]4C(CC[C@]5(C)[C@@H](C6=CC(=O)OC6)CC[C@]45O)[C@@]3(C)[C@H](O)C2)O[C@H](C)[C@@H]1O[C@@H]1O[C@H](CO)[C@@H](O)[C@H](O)[C@H]1O (stereo not given in full)	5.11%	5.73%	11.1%	-6.65%	5.68%
COc1ccc(NC(=O)N2Cc3ccccc3-n3cccc3C2c2cc(F)cc(F)c2)cc1OC (stereo not given)	6.6%	1.87%	4.95%	1.09%	1.45%
NC(=O)c1ccc(-c2cccc3c2CCNC3)s1	-2.16%	-3.51%	-43.6%	-1.66%	-14.2%
O=C(Nc1ccc(F)cc1F)N1Cc2ccccc2-n2cccc2C1c1cc(F)cc(F)c1 (stereo not given)	10.4%	0%	4.76%	5.53%	7.78%
COC1CCCC(C)OC(=O)Cc2cc(O)cc(O)c2C(=O)C1 (stereo not given)	-0.48%	-15.2%	-5.39%	-19.8%	-1.65%
COC(=O)c1cccc(NC(=O)N2Cc3ccccc3-n3cccc3C2c2cc(F)cc(F)c2)c1 (stereo not given)	3%	4.66%	-1.47%	-1.84%	0.515%
COc1cc2c(cc1CCc1ccccc1)N(C(=O)C(C)C)CC21CCN(C(C)=O)CC1	-9.98%	-7.74%	-2.7%	-17%	-2.49%
CCOc1ccc(C2c3cccn3-c3ccccc3CN2C(=O)Nc2ccc(Cl)cc2)cc1 (stereo not given)	-2.21%	4.48%	-3.16%	-8.68%	-3.78%
CC(C)(O)[C@H]1O[C@H]2CC[C@@]3(C)[C@@](O)(CC[C@H]4Cc5c([nH]c6ccccc56)[C@@]43C)C2=CC1=O	-6.63%	-7.36%	2.46%	-19.7%	-8.38%
CC1c2cccn2-c2ccccc2CN1C(=O)Nc1ccccc1Cl (stereo not given)	1.12%	0%	0.685%	-2.64%	3.01%
CC(=O)[C@H]1CC[C@H]2[C@@H]3CC[C@H]4C[C@](C)(O)CC[C@]4(C)[C@H]3CC[C@]12C	-2.12%	9.06%	0.274%	-1.93%	10.1%
Cc1sc2ccccc2c1CC1=NCCN1	-12.5%	7.94%	-12.9%	-11.7%	-28.4%
CN(C)c1ccc(C2c3cccn3-c3ccccc3CN2C(=O)NCc2ccco2)cc1 (stereo not given)	7.98%	4.09%	-4.42%	-5.85%	2.4%

Structure (SMILES)	activity change, negative = inhibition [1]	activity change, negative = inhibition [2]	activity change, negative = inhibition [3]	activity change, negative = inhibition [4]	activity change, negative = inhibition [5]
CCc1ccc(C2c3cccn3-c3ccccc3CN2C(=O)Nc2ccc(Br)cc2)cc1 (stereo not given)	13.8%	0.889%	4.99%	2.06%	5.96%
COc1ccc(N(C(=O)Oc2c(C)cccc2C)c2ccnc(Nc3ccc(N4CCN(C)CC4)cc3)n2)c(OC)c1	2.3%	11.8%	1.8%	-13.3%	-4.21%
COC1=C[C@@H]2[C@@H]3Cc4ccc(OC)c(O)c4[C@]2(CCN3C)CC1=O	3.29%	3.97%	6.5%	-6.53%	3.11%
CCOc1ccc(C2c3cccn3-c3ccccc3CN2C(=O)Nc2cc(C)ccc2C)cc1 (stereo not given)	-1%	0%	2.61%	7.22%	4.17%
C[N+](C)(C)CCOC(=O)CBr	1.51%	11.3%	-5.38%	-2.69%	8.86%
C/C(=C\c1csc(C)n1)[C@@H]1C[C@@H]2O[C@@H]2CCC[C@H](C)[C@H](O)[C@@H](C)C(=O)C(C)(C)[C@@H](O)CC(=O)O1	-2.16%	-7.83%	0.618%	-19.1%	-2.63%
CCc1nn(C)c(C(=O)NCc2ccc(Oc3ccc(C)cc3)cc2)c1Cl	-0.785%	-5.15%	12.8%	-17.4%	-1.28%
CC(=O)O[C@H]1C[C@@H](OC(C)=O)C(C)(C)C2C[C@@H](O)[C@]3(C)C(CC[C@@]4(C)[C@H](C5=CC(=O)OC5O)C[C@H]5O[C@]543)[C@]21C (stereo not given in full)	2.45%	4.52%	4.88%	-10.8%	2.24%
CO[C@@H]1C[C@H](O[C@H]2CC[C@@]3(C)C(CCC4C3CC[C@]3(C)[C@@H](C5=CC(=O)OC5)[C@@H](OC(C)=O)CC43O)C2)O[C@H](C)[C@@H]1O[C@H]1O[C@H](CO[C@@H]2O[C@H](CO)[C@@H](O)[C@H](O)[C@H]2O)[C@@H](O)[C@H](O)[C@H]1O (stereo not given in full)	0.84%	-1.8%	3.47%	-11%	-5.7%
CSc1ccc(C2c3cccn3-c3ccccc3CN2C(=O)Nc2ccc3c(c2)OCCO3)cc1 (stereo not given)	-4.19%	1.6%	-0.475%	0%	4.35%
CCn1ccc(C(=O)N2[C@H]3CC[C@@H]2c2cnc(C)nc2C3)n1	-3.89%	-2.91%	-0.623%	-2.01%	-20.4%
CCCN1CCN(C(=O)Cc2cccn2-c2ccc(F)cc2)CC1	-4.88%	-4.72%	-1.41%	-8.08%	-9.81%
CCOc1ccc(C2c3cccn3-c3ccccc3CN2C(=O)Nc2ccccc2Cl)cc1 (stereo not given)	0.803%	0%	-1.72%	-1.71%	1.88%
CCOc1ccc(NC(=O)N2Cc3ccccc3-n3cccc3C2c2ccc(SC)cc2)cc1 (stereo not given)	0.813%	0.053%	3.54%	5.73%	8.07%
Cc1cccc(C2c3cccn3-c3ccccc3CN2C(=O)Nc2ccc(F)cc2)c1 (stereo not given)	6.77%	4.67%	8.41%	3.1%	4%
CC1C/C=C/C(O)C(O)CC/C=C/c2cc(O)cc(O)c2C(=O)O1 (stereo not given)	-9.27%	2.93%	-15.5%	-9.61%	-2.44%
NCC(CC(=O)O)c1ccc(Cl)cc1 (stereo not given)	10.3%	9.73%	11.3%	-7.23%	-3.38%
CC(C)[C@]12O[C@H]1[C@@H]1O[C@]13[C@]1(O[C@H]1C[C@H]1C4=C(CC[C@@]13C)C(=O)OC4)[C@@H]2O	2.55%	6.65%	6.53%	-5.55%	3.1%
